Data taken from PubChem BioAssay AID1468 (National Center for Advancing Translational Sciences (NCATS), 2008).
Among all 280,000 compounds or so, about 1,100 (0.39%) were called active. The shares of active, inactive and inconclusive entries below differ from those in the screen. The call rests on the fitted dose curve; in most records, active means well fitted inhibition curve with a large enough effect; inconclusive means small, poorly fitted or top-dose-only effect, or effect the other way; inactive means flat fitted curve, though single readings scatter. No potency is given beside an inconclusive call; the fits are too rough.
Further: nearly all actives have a fitted effect of over 55% in size.
On the % scale 0 is the no-effect control and ±100 the full control effect; potency means the concentration at half of the fitted maximal effect; tags describe the fitted curve by direction and shape.

The compounds below were run against Microtubule-associated protein tau (Homo sapiens) (UniProt P10636) (assay: qHTS for Inhibitors of Tau Fibril Formation, Fluorescence Polarization). Settings: K18 P301L tau heparin fibrillization, Alexa594 FP, 6 h; series mostly up to 57.7 µM; activity, negative = inhibition: at the top concentration.
Chain of UniProt P10636 (P10636 whole entry, looked up): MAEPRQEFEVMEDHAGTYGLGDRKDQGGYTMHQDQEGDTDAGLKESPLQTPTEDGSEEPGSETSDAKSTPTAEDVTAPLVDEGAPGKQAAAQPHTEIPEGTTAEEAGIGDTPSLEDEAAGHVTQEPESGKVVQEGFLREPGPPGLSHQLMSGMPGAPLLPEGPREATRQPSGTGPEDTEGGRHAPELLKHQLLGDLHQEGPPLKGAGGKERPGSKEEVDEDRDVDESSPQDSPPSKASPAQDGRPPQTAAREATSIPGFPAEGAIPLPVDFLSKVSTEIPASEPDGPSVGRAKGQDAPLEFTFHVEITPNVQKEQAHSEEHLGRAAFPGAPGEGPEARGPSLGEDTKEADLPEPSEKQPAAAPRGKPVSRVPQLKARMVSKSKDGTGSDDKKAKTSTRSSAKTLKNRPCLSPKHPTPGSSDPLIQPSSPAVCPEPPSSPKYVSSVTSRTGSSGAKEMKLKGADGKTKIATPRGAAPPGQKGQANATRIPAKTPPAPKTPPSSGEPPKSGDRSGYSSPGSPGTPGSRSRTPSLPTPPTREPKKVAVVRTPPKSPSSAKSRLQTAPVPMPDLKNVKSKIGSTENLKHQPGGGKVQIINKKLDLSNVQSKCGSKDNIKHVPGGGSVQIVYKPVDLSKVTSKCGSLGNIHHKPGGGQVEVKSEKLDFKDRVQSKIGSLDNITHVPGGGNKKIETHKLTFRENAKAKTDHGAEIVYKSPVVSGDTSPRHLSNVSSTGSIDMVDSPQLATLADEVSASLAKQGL
Procedure, shortened: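 Recombinant K18 P301L […], labeled with Alexa 594 at 0.24 uM over 15 uM unlabeled; heparin inducer 20 uM final; 37 C, 6 hr; FP endpoint.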
With `Cc1ccc(NC(=O)C2CCN(c3nc4ccccc4nc3C(F)(F)F)CC2)cc1F` the Potency was inconclusive [inhibitor, partial curve].
With `CC1=CC(C)=Nc2ccc(C)cc2N1` the Potency was “inactive”.
For `CCOC(=O)c1cc(-c2ccccc2)n(-c2cccc(C(=O)Nc3cccc(F)c3)c2)c1C`, the Potency was inconclusive [inhibitor, partial curve].
`COc1ccc(-c2csc(NC(=O)c3cc(-c4cccs4)nc4ccccc34)n2)c(OC)c1` was tested, and the Potency was inconclusive [inhibitor, partial curve].
With `O=C(O)COc1ccccc1C(Nc1ccccn1)c1cc(Cl)c2cccnc2c1O` (stereo not drawn) the Potency was inconclusive [inhibitor, partial curve].
With `CCc1c(C(=O)NNC(=S)NCCc2ccccc2)csc1C` the Potency was inconclusive [inhibitor, single point].
In the case of `Nc1n[nH]c(=S)n1/N=C1/C(=O)Nc2ccccc21`, the Potency is reported as inconclusive [inhibitor, single point].
`CCc1ccc(NC(=O)Nc2ccc3c(c2)N(C)C(=O)CS3)cc1` was tested, and the Potency was inconclusive [inhibitor, single point].
For `CC(=O)OCC(=O)Nc1c(C)cc(C)cc1C`, the “activity, negative = inhibition” value was inactive: -0.155%.
`Cc1ccc(N2NC(=O)/C(=C/C=C/c3ccco3)C2=O)cc1C` was tested, and the Potency was inconclusive [inhibitor, partial curve, poor fit].
For `Cc1cccc(NC(=S)N(Cc2ccco2)C(C)c2cccs2)c1` (stereo not drawn), the Potency was inconclusive [inhibitor, partial curve].
In the case of `COc1cccc(Cn2nnc(C(=O)Nc3cc(C)ccc3C)c2N)c1`, the Potency is reported as inconclusive [inhibitor, partial curve].
`CC(C)CS(=O)(=O)c1oc(-c2ccc(F)cc2)nc1S(=O)(=O)c1ccccc1` was tested, and the Potency was inconclusive [inhibitor, single point].
For `CCOC(=O)CSC1=N/C(=C/c2ccc(-n3cncn3)cc2)C(=O)N1C(C)=O`, the Potency was inconclusive [inhibitor, single point].
In the case of `COc1ccc(CCNC(=O)c2cnc3ccc(C)cn3c2=O)cc1`, the “activity, negative = inhibition” value is reported as inactive: 3.58%.
For `Nc1nc(SCC(=O)NCCCN2CCOCC2)nc2sc3c(c12)CCC3`, the “activity, negative = inhibition” value was inactive: 1.25%.
`CCN(CC)c1nc2c3c(nc4c(c3c1C#N)CC(=O)N4c1ccc(Cl)cc1)NC(C)=N2` was tested, and the Potency was inconclusive [inhibitor, partial curve].
For `Cc1cc(NC(=O)CSc2nc(-c3ccccc3Cl)nc3c2c(=O)n(C)c(=O)n3C)no1`, the Potency was inconclusive [inhibitor, partial curve, poor fit].
For `Cc1[nH]c2ccccc2c1C(=O)COc1ccccc1F`, the Potency was inconclusive [inhibitor, single point].
For `O=c1cc(-c2cccc(O)c2)oc2ccc(O)cc12`, the Potency was inconclusive [inhibitor, single point].
`O=C(NC1CC(=O)N(c2cccc(F)c2)C1)c1ccc(S(=O)(=O)N2CCCC2)cc1` (stereo not drawn) was tested, and the Potency was inconclusive [inhibitor, full curve, poor fit].
With `CC(C)Oc1ccc2c(=O)cc(-c3ccccc3)oc2c1` the Potency was inconclusive [inhibitor, single point].
With `CSc1ccc(/C=N/n2c(C)cc(C)cc2=O)cc1` the “activity, negative = inhibition” value was inactive: -1.85%.
For `Cc1nc(N2CCOCC2)c2c(C)c(C(=O)Nc3ccc(C(F)(F)F)cc3)sc2n1`, the Potency was inconclusive [inhibitor, partial curve].
For `CCOC(=O)c1cnc(N2CCN(C(=O)OCC)CC2)[nH]c1=O`, the “activity, negative = inhibition” value was inactive: -9.83%.
For `CC1=C(C(=O)Nc2ccc(Cl)cc2)C(c2ccc(C(F)(F)F)cc2)n2nnnc2N1` (stereo not drawn), the Potency was active: 22.4 µM.
In the case of `Cc1ccccc1NC(=O)COC(=O)CCc1nc2ccccc2c(=O)[nH]1`, the “activity, negative = inhibition” value is reported as inactive: -4.72%.
`O=C(c1ccccc1)c1nc2ccccc2n(CCCn2c(=O)c(C(=O)c3ccccc3)nc3ccccc32)c1=O` was tested, and the Potency was inconclusive [inhibitor, single point].
`C=CCN(CC=C)C(=O)C(=O)c1ccn(-c2c(C)csc2C(=O)OC)c1` was tested, and the Potency was inconclusive [inhibitor, single point].
`Cc1cc(N/N=C/c2ccc(O)c(C)c2O)nc(-c2ccccc2O)n1` was tested, and the Potency was inconclusive [activator, partial curve].
`CC1CCC(C(=O)O)NC1c1cccc(N2CCCC2=O)c1` (stereo not drawn) was tested, and the activity, negative = inhibition was inactive: -1.83% [at 11.6 µM].
`O=C(Nc1cc(S(=O)(=O)Nc2ccccc2Cl)ccc1O)c1cc2c(s1)CCCC2` was tested, and the Potency was inconclusive [inhibitor, single point].
`O=C(NCCCO)Nc1ccc2nc(-c3ccco3)c(-c3ccco3)nc2c1` was tested, and the Potency was inconclusive [inhibitor, partial curve].
For `Cc1ccc(N=C2NC(=O)/C(=C/c3cccn3C)S2)cc1C`, the “activity, negative = inhibition” value was inactive: -3.6%.
In the case of `O=C(NN1C(=O)C2C(C1=O)C1C=CC2C12CC2)c1ccncc1` (stereo not drawn), the Potency is reported as inconclusive [inhibitor, partial curve].
With `O=C(CCc1nc2ccccc2[nH]1)N1CCN(C(=O)c2ccco2)CC1` the “activity, negative = inhibition” value was inactive: -1.53%.
In the case of `CN(C(=O)COC(=O)/C=C/c1ccccc1[N+](=O)[O-])c1ccccc1`, the “activity, negative = inhibition” value is reported as inactive: -0.512%.
For `CCC(=O)N1c2ccc(S(=O)(=O)CCC(=O)Nc3ccc(Br)c(C)c3)cc2CC1C` (stereo not drawn), the “activity, negative = inhibition” value was inactive: -12.3%.
With `CCOc1ccc(CNS(=O)(=O)c2ccc(-c3coc(C)n3)cc2)cc1OC` the “activity, negative = inhibition” value was inactive: 2.39%.
In the case of `O=[N+]([O-])c1cc(Cl)ccc1N1CCCC1`, the “activity, negative = inhibition” value is reported as inactive: -8.71%.
In the case of `O=S(=O)(c1ccccc1)n1ccc(-c2cnc(-c3ccccc3)s2)n1`, the Potency is reported as inconclusive [inhibitor, single point].
With `CCC(C)c1ccc(NC(=S)Nc2ccc(OC)cc2)cc1` (stereo not drawn) the Potency was inconclusive [activator, partial curve, poor fit].
For `Cc1ccc(Nc2nnc(SCC3CCCCO3)s2)cc1` (stereo not drawn), the Potency was inconclusive [activator, full curve].
With `O=S(=O)(c1ccccc1)c1nnn2c1nc(NCc1ccccc1)c1sccc12` the Potency was inconclusive [inhibitor, partial curve, poor fit].
For `CC1CCc2cc(F)ccc2N1C(=O)CSc1nnc2c(n1)[nH]c1ccccc12` (stereo not drawn), the Potency was inconclusive [inhibitor, single point].
With `Fc1ccc(CCNC(=S)Nc2ccc(F)c(Cl)c2)cc1` the Potency was inconclusive [inhibitor, partial curve].
`Cc1nc(NC(=O)/C=C/c2ccccc2)sc1C(=O)Nc1cccc(Cl)c1` was tested, and the Potency was inconclusive [inhibitor, full curve, poor fit].
In the case of `Cc1cccc2sc(N(CCCN(C)C)C(=O)COc3ccccc3)nc12`, the Potency is reported as inconclusive [inhibitor, single point].
For `COc1ccc(NC(=S)Nc2nc(CC(=O)Nc3ccccc3OC)cs2)cc1`, the “activity, negative = inhibition” value was inactive: -8.08%.
For `O=C(CCSc1nnc2scc(-c3ccccc3)n12)NCc1ccc2c(c1)OCO2`, the “activity, negative = inhibition” value was inactive: 2.76%.
With `CCOC(=O)c1ccc(NC(=O)CSCc2ccco2)cc1` the Potency was inconclusive [inhibitor, single point].
`COCc1[nH][nH]c(=O)c1C=Nc1ccc(F)cc1F` was tested, and the Potency was inconclusive [inhibitor, single point].
`N[C@@H](Cn1c2c(c(=O)[nH]c1=O)CCC2)C(=O)O` was tested, and the Potency was inconclusive [inhibitor, single point].
With `O=C(/C=C\c1ccccc1)NC1CC(=O)N(c2ccccc2)C1` (stereo not drawn) the Potency was inconclusive [inhibitor, full curve, poor fit].
For `C=CCNC(=O)/C(C#N)=C/c1ccc(OS(=O)(=O)c2ccc(C)cc2)c(OC)c1`, the Potency was inconclusive [activator, partial curve].
`CCCn1c(CCCNC(=O)c2ccccc2OC)nc2ccccc21` was tested, and the “activity, negative = inhibition” value was inactive: -8.22%.
In the case of `O=C1C(=O)c2ccc(-c3ccccc3)cc2-c2ccccc21`, the Potency is reported as inconclusive [inhibitor, full curve].
`O=C(Cc1sc(-c2ccccc2)nc1-c1ccccc1)Nc1ccc(Cl)cc1` was tested, and the Potency was inconclusive [inhibitor, full curve].
For `CC(C(=O)OCC(=O)Nc1ccc(S(=O)(=O)N2CCCCC2)cc1)N1C(=O)c2ccccc2C1=O` (stereo not drawn), the Potency was inconclusive [inhibitor, partial curve, poor fit].
For `Cc1c(N2C(=O)/C(=C/C3CC=CCC3)SC2=S)c(=O)n(-c2ccccc2)n1C` (stereo not drawn), the Potency was inconclusive [inhibitor, partial curve].
In the case of `C=CC[n+]1ccc(/C=C2\C=Cc3cc(C)ccc3N2CC)c2ccccc21`, the Potency is reported as active: 31.6 µM.
In the case of `COc1ccc(OC)c(CNC(=O)CN2CC(C)Sc3ccccc32)c1` (stereo not drawn), the Potency is reported as inconclusive [activator, single point].
In the case of `O=C(O)c1cc(NN=Nc2ccc(Br)cc2)cc([N+](=O)[O-])c1`, the “activity, negative = inhibition” value is reported as inactive: 0.538%.
With `Cc1ccc(Oc2c(C(N)=O)cc([N+](=O)[O-])cc2[N+](=O)[O-])cc1` the Potency was inconclusive [inhibitor, single point].
`CC(=O)Nc1nc2ccccc2n1Cc1ccc(Cl)cc1` was tested, and the “activity, negative = inhibition” value was inactive: -5.2%.
For `COc1ccc(N=Nc2ccc(O)c3ncccc23)cc1`, the Potency was inconclusive [activator, partial curve].
`O=C(NC1CCCC1)C(c1ccncc1)N(Cc1ccco1)C(=O)c1ccc(-c2ccccc2)[nH]1` (stereo not drawn) was tested, and the “activity, negative = inhibition” value was inactive: -8.19%.
With `COc1ccc(NC(=O)CSc2nc(-c3ccco3)cc(C(F)(F)F)n2)cc1Cl` the Potency was inconclusive [inhibitor, partial curve, poor fit].
